In experiment [1] the target is T1, Flag-TRAF3IP3 (wild-type TRAF3IP3) (human) (UniProt Q9Y228).
T1 sequence: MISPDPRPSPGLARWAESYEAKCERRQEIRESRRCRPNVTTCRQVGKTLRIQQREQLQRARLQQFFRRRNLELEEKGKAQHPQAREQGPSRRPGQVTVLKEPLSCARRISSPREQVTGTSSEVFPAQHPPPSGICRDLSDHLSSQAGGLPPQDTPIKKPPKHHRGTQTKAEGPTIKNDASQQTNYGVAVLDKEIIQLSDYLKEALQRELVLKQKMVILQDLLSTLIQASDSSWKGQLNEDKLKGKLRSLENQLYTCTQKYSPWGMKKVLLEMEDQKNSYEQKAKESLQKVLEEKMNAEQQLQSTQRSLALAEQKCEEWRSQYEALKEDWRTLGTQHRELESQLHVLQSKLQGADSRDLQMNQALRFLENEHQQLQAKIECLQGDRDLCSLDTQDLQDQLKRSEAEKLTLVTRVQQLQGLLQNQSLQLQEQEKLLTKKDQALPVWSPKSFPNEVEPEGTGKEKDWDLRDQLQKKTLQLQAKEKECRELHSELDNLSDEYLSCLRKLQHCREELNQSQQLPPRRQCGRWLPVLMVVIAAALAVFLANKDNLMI
Nature of the experiment: co-IP; 293T cells co-transfected with Flag-TRAF3IP3 (wild type or truncations) and HA-STRN3, 48 h; RIPA lysis; anti-Flag or anti-HA overnight at 4 °C, Dynabeads protein G; also after thapsigargin (more binding) or 4-PBA (less binding) treatment of the cells.

In experiment [2] the target is T2, Flag-TRAF3IP3 deletion truncation 1-235 (human) (UniProt Q9Y228).
T2 sequence: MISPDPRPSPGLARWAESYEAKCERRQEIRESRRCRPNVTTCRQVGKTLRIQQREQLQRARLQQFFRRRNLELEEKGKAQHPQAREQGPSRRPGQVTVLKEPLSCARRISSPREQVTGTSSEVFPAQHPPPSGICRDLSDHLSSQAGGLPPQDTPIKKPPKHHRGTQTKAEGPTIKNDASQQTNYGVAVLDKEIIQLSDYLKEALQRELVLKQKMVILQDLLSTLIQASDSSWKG
The description is as above.

In experiment [3] the target is T3, Flag-TRAF3IP3 deletion truncation 236-450 (human) (UniProt Q9Y228).
T3 sequence: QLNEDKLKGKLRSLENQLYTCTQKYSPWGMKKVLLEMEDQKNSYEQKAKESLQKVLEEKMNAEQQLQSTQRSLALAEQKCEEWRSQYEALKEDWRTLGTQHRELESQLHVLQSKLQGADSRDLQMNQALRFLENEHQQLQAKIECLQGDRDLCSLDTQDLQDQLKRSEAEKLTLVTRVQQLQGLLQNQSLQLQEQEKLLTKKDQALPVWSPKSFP
The experiment is described as above.

The target in experiment [4] is T4, Flag-TRAF3IP3 deletion truncation 451-520 (human) (UniProt Q9Y228).
T4 sequence: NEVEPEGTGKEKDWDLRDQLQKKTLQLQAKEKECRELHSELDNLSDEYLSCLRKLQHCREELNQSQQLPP
Described as above.

Experiment [5] concerns the target T5, Flag-TRAF3IP3 deletion truncation 521-551 (transmembrane domain) (human) (UniProt Q9Y228).
T5 sequence: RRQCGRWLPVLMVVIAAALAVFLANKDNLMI
The experiment is described as above.

The target in experiment [6] is T6, endogenous TRAF3IP3 (human (endogenous in A549, PC9, H1299)) (UniProt Q9Y228).
T6 sequence: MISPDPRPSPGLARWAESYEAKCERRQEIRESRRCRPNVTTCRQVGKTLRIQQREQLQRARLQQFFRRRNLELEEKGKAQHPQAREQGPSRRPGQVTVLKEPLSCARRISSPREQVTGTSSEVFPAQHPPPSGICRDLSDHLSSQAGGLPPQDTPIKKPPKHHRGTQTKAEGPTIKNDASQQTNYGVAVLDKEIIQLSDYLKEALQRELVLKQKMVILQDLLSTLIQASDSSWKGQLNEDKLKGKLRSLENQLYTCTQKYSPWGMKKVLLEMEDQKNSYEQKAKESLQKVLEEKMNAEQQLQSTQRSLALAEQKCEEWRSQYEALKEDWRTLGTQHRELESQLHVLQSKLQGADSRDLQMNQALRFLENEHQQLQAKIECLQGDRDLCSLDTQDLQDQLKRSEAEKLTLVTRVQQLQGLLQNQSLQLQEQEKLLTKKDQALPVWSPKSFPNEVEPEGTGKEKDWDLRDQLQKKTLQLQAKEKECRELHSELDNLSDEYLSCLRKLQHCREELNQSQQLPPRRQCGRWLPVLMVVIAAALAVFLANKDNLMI
Nature of the experiment: co-IP; endogenous proteins, A549, PC9 and H1299 cell lysates.

These are yes or no findings as the source states them, for the method shown. Binding seen in cells or lysates may run through a third protein. Some results given as binding are weak or reduced against the parent protein; the word gives no strength. For part of these data: Tags and fused reporters may be left off the sequences shown.

Consider two molecules from publication PMC12061266.

B1: HA-STRN3 (protein, UniProt Q13033 1-797)
chain: MDELAGGGGGGPGMAAPPRQQQGPGGNLGLSPGGNGAAGGGGPPASEGAGPAAGPELSRPQQYTIPGILHYIQHEWARFEMERAHWEVERAELQARIAFLQGERKGQENLKKDLVRRIKMLEYALKQERAKYHKLKYGTELNQGDLKMPTFESEETKDTEAPTAPQNSQLTWKQGRQLLRQYLQEVGYTDTILDVRSQRVRSLLGLSNSEPNGSVETKNLEQILNGGESPKQKGQEIKRSSGDVLETFNFLENADDSDEDEENDMIEGIPEGKDKHRMNKHKIGNEGLAADLTDDPDTEEALKEFDFLVTAEDGEGAGEARSSGDGTEWDKDDLSPTAEVWDVDQGLISKLKEQYKKERKGKKGVKRANRTKLYDMIADLGDDELPHIPSGIINQSRSASTRMTDHEGARAEEAEPITFPSGGGKSFIMGSDDVLLSVLGLGDLADLTVTNDADYSYDLPANKDAFRKTWNPKYTLRSHFDGVRALAFHPVEPVLVTASEDHTLKLWNLQKTVPAKKSASLDVEPIYTFRAHIGPVLSLAISSNGEQCFSGGIDATIQWWNMPSPSVDPYDTYEPNVLAGTLVGHTDAVWGLAYSGIKNQLLSCSADGTVRLWNPQEKLPCICTYNGDKKHGIPTSVDFIGCDPAHMVTSFNTGSAVIYDLETSQSLVILSSQVDSGLQSNNHINRVVSHPTLPVTITAHEDRHIKFFDNKTGKMIHSMVAHLDAVTSLAVDPNGIYLMSGSHDCSIRLWNLDSKTCVQEITAHRKKLDESIYDVAFHSSKAYIASAGADALAKVFV
Regarding B1, the binding result is listed as “binds” in experiment [1]; “binds” in experiment [2]; “binds” in experiment [3]; “no binding” in experiment [4]; “binds” in experiment [5].

B2: endogenous STRN3 (protein, UniProt Q13033 1-797)
chain: MDELAGGGGGGPGMAAPPRQQQGPGGNLGLSPGGNGAAGGGGPPASEGAGPAAGPELSRPQQYTIPGILHYIQHEWARFEMERAHWEVERAELQARIAFLQGERKGQENLKKDLVRRIKMLEYALKQERAKYHKLKYGTELNQGDLKMPTFESEETKDTEAPTAPQNSQLTWKQGRQLLRQYLQEVGYTDTILDVRSQRVRSLLGLSNSEPNGSVETKNLEQILNGGESPKQKGQEIKRSSGDVLETFNFLENADDSDEDEENDMIEGIPEGKDKHRMNKHKIGNEGLAADLTDDPDTEEALKEFDFLVTAEDGEGAGEARSSGDGTEWDKDDLSPTAEVWDVDQGLISKLKEQYKKERKGKKGVKRANRTKLYDMIADLGDDELPHIPSGIINQSRSASTRMTDHEGARAEEAEPITFPSGGGKSFIMGSDDVLLSVLGLGDLADLTVTNDADYSYDLPANKDAFRKTWNPKYTLRSHFDGVRALAFHPVEPVLVTASEDHTLKLWNLQKTVPAKKSASLDVEPIYTFRAHIGPVLSLAISSNGEQCFSGGIDATIQWWNMPSPSVDPYDTYEPNVLAGTLVGHTDAVWGLAYSGIKNQLLSCSADGTVRLWNPQEKLPCICTYNGDKKHGIPTSVDFIGCDPAHMVTSFNTGSAVIYDLETSQSLVILSSQVDSGLQSNNHINRVVSHPTLPVTITAHEDRHIKFFDNKTGKMIHSMVAHLDAVTSLAVDPNGIYLMSGSHDCSIRLWNLDSKTCVQEITAHRKKLDESIYDVAFHSSKAYIASAGADALAKVFV
With B2, the binding entry in experiment [6] is recorded as “binds”.
